Test results as given in the supplement of paper PMC11417369.
± gives the standard deviation of the averaged measurements. This is one part of the list.

Test system: PfAP2-I AP2 domain 3 (GST-tagged)
Assay: gcPBM binding intensity (ln(normalized median fluorescence intensity)); higher = stronger DNA binding
Procedure, shortened: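 GST-tagged P. falciparum DNA-binding domains, expressed in E. coli (about 25 μg on average), were applied for 1 h to an Agilent 4 × 180k array of primer-extended double-stranded 36-bp intergenic genomic probes plus negative controls. The binding buffer was 1× PBS with 1% milk, 0.2 mg/ml BSA, 0.5% salmon testes DNA and 0.03% Triton X-100. Bound protein was detected with Alexa488 anti-GST antibody and scanned at 488 nm. Binding intensity is the highest Masliner-normalised natural-log median intensity across replicate spots of either probe orientation.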

| Sequence | gcPBM binding intensity (ln) |
| --- | --- |
| AAAAAAAAAAAAAAAAAAACCACAAACAAATATGAA [TGCATGCA_negctrl_site34] | 9.24 ± 0.057 |
| TTTTAAAATATATTTGTATATATATATATATATATA [XGTACX_negctrl_site536] | 9.15 ± 0.42 |
| ATAATATAATAATACACACTCATTATATATATAAAG [CACACA_site3956] | 7.83 ± 0.38 |
| AAAAAAAATAAACACACACACATACCCATAAATATA [CACACA_site5980] | 7.88 ± 0.29 |
| TTTGAAATATTTATTTGTACATATACACACTTAAAT [XGTACX_site8321] | 7.88 ± 0.35 |
| ATATTATTTTGTCAGGGTACATTCCATAAGTTTTTT [XGTACX_site6855] | 7.98 ± 0.59 |
| TTATAAATTTAAAGTAGTACTATACTACTATTTTAT [XGTACX_site3038] | 7.62 ± 0.23 |
| CATTTTTTATAATAATGTACATGTATTAAAAAAAAA [XGTACX_site6390] | 8.02 ± 0.61 |
| TTTATAAGAATTACTAGTACATATAAGGAATTATAT [XGTACX_site3953] | 7.63 ± 0.5 |
| ATCCACAAAATAGGATGTACATATAAAATAAATAAA [XGTACX_site5362] | 7.64 ± 0.38 |
| TATGGAATAATACGCGTACACACATATATATATTAA [CACACA_site132] | 8.11 ± 0.32 |
| AATGGGGAAGGTTCTACACACAACGCAAATGCCTTA [CACACA_site2758] | 7.84 ± 0.71 |
| AAATTATTATGTATTTGTACACATAAGAATATAAAA [XGTACX_site6841] | 7.83 ± 0.46 |
| TATAAATAATGTTAAACACACATACCGATATATAAT [CACACA_site5499] | 7.68 ± 0.64 |
| TCAGTTAATGTATATGTACACACGGTGAGTATATAT [CACACA_site3346] | 7.82 ± 0.65 |
| AGAGAAAGAAAGAAATGTACAAATACCTACACACAT [XGTACX_site3140] | 7.89 ± 0.51 |
| TATTTTTTTCATAACAGTACAATAATATATATTTTT [XGTACX_site5739] | 7.75 ± 0.32 |
| GCACACACAAAAAAAGCATGCATACTAGCTATTTTT [TGCATGCA_site18] | 7.7 ± 0.72 |
| TTTTTTACAAATGATATCATTTCTTTAAATATTAAA [TGCATGCA_negctrl_site279] | 7.68 ± 0.61 |
| CTATAAATGAATGTTTGTACTTAATAATAAAAGAAA [XGTACX_site3170] | 7.83 ± 0.3 |
| AATGAAATAAATAAGGGTACACATAAATATATATAT [XGTACX_site7006] | 9.025 ± 0.078 |
| TATTCGTGCAATAATAGTACACTTATAAATTATTCA [XGTACX_site8993] | 11.2 ± 0.66 |

| Sequence | gcPBM binding intensity (ln) |
| --- | --- |
| AAAAAACACCCATACACACACACACCGATATATATA [CACACA_site5808] | 8.19 ± 0.7 |
| AATCAAAAAAAATGTTGTACGCCTAATTATAATTAA [XGTACX_site8906] | 8.06 ± 0.16 |
| ATTCTATATATATAAACACACAAATATTTTTATATA [CACACA_site1677] | 7.87 ± 0.43 |
| TTTTAGTGAAATGAGTGTACATTATATATTTTTTTT [XGTACX_site4892] | 7.64 ± 0.38 |
| ATATAAGGAAGGGATGCACACAAAAGGGTACATAAG [CACACA_site9328] | 8.29 ± 0.54 |
| AAGACTAATCTAGGTAGTACTTATATATCTTTATTT [XGTACX_site4572] | 7.54 ± 0.35 |
| TTTTTTATATATGTGTGTGTGTGTGTGTCAAGTTTA [GTGCAC_negctrl_site460] | 8.01 ± 0.2 |
| ATAACATAATAGCAACAATTTATTTCCTCTATAACA [CACACA_negctrl_site243] | 7.73 ± 0.58 |
| TTTGGGATATTTACAGTGCAAAGATATTTTTATAAT | 9.21 ± 0.11 |
| ATATTTTTGTTCAGGAGTACAGTTCAAGATGAAAAT [XGTACX_site4178] | 8.3 ± 0.27 |
| ATATAATATTACAAATGTACTTTAAAAAATTAGGAG [XGTACX_site3897] | 7.72 ± 0.45 |
| TTGTTTCAAGAAAAAATCGAAAAACATAGAAAAAAA [XGTACX_negctrl_site615] | 7.68 ± 0.69 |
| ACATATAAAATATATACACACATATAAATACATTAA [CACACA_site3867] | 7.66 ± 0.38 |
| TATATATCAAAAATATGTACACAGAAATATATATTA [XGTACX_site6997] | 8.04 ± 0.48 |
| TTGCAATAATGTTGCACACTAAATAGTCATATATAA [CACACA_site263] | 8.835 ± 0.078 |
| TCACATACATTACTTACACACCATATTAATATATAC [CACACA_site8047] | 8.19 ± 0.59 |
| AATAAAAAATAAAAAATAAACAGTATACATATATAT [GTGCAC_negctrl_site31] | 7.77 ± 0.75 |
| TCATATTAATTTGATAGTACATATACTTTGAAGTCC [XGTACX_site3767] | 7.74 ± 0.46 |
| TGTATATAAACAAGGGGTACAATAATATAAATAAAT [XGTACX_site8675] | 8.33 ± 0.21 |
| TTTTTTTTTTTTTTTACACACTATAGGGAAAAAAAA [CACACA_site1916] | 8.24 ± 0.61 |
| AAAAATATAATATATCTAAAATTTTTCATTAAATAT [XGTACX_negctrl_site274] | 7.4 ± 0.54 |
| ATAAATAAAAATACATGAACAGGTCAGGTTATTTTT [CACACA_negctrl_site1007] | 7.29 ± 0.61 |

| Sequence | gcPBM binding intensity (ln) |
| --- | --- |
| TTATATATAGAATAAACATGCATTTGTATATGAATA [TGCATGCA_site604] | 7.71 ± 0.53 |
| ACATATATATATTTATATATATATATATATATGTGA [CACACA_negctrl_site613] | 8.02 ± 0.35 |
| TGTTGTAACAAAAGTACACACACATTTCTATAAATT [CACACA_site8894] | 7.98 ± 0.042 |
| ATTACATAACAATATACACACTATTGATTAAAGAGA [CACACA_site5602] | 7.76 ± 0.47 |
| ATAATATAAATAAAGCGTACTTAATTTTATATATAT [XGTACX_site4626] | 7.86 ± 0.45 |
| TATTTAAAAGTATATACACACAACTGGAATGAAAAG [CACACA_site4126] | 8.18 ± 0.64 |
| CATTATGTCATAAATGCACACATATATATATACATA [CACACA_site8454] | 9.69 ± 0.19 |
| AAAATTAAAAAAATAAATACATTATATAATTAAAAA [CACACA_negctrl_site1426] | 7.51 ± 0.53 |
| TATGTATGCCCTAATGCATGTGAACAAAATAATATA [TGCATGCA_site407] | 8.06 ± 0.46 |
| TATTTTAATCGTAAGTGTACTCTTTTAAGTATATGT [XGTACX_site8591] | 7.85 ± 0.21 |
| ATTATAACACCTCCCCCCCTTTTTTTATGAAGACCA [CACACA_negctrl_site1043] | 10.3 ± 0.2 |
| AACAGACATAGACACACACACATATATTTATTTATA [CACACA_site7571] | 8.02 ± 0.57 |
| ATGCAAATAATATAAAGTACACAACATCGCCCAAAG [XGTACX_site1825] | 8.45 ± 0.55 |
| TTTTTTAAATTTTGAATTATAACTACATTAAAGAAA [GTGCAC_negctrl_site279] | 7.46 ± 0.45 |
| ACCATATAAATAAACACACACACACCCATATATATA [CACACA_site2321] | 8.27 ± 0.76 |
| TATATATCTATATTTACACACAGTTACTATGTAGAT [CACACA_site7532] | 7.44 ± 0.35 |
| ATAATATGTATAATCACACATTTTTCTTTTAAGACA [CACACA_site5297] | 7.61 ± 0.53 |
| GTTAAACTTAATATCGGTACACACACAAGATAAGAA [XGTACX_site1660] | 8.09 ± 0.49 |
| TAAAATATCATAGATAGTACATATAACGTTTTATAT [XGTACX_site5666] | 7.61 ± 0.48 |
| CATGACATAAAAAATATACACACTATAATATATATA [CACACA_site1402] | 8.27 ± 0.36 |
| AAATATATTATATTTAGTACGCATATATAATATGCA [XGTACX_site4835] | 7.63 ± 0.28 |
| ATGAAAATTTATATTGCACACATAGGGAATAAAAAA [CACACA_site8667] | 10.8 ± 0.71 |

| Sequence | gcPBM binding intensity (ln) |
| --- | --- |
| AGTTAATTAATAGGCACACATATATATGTATAAATA [CACACA_site523] | 8.19 ± 0.35 |
| AGAATAAGAATTATTAGTACTTATAAATATTATATT [XGTACX_site7228] | 7.46 ± 0.3 |
| GTAAATACACATATGTGTACATATATATATATATAT [XGTACX_site3696] | 9.36 ± 0.64 |
| TAATTTAAAATATATAGTACACACGTGAACACAAAT [XGTACX_site792] | 8.22 ± 0.33 |
| CTATTACATTAAATGTGTACATATATATATATATAT [XGTACX_site5233] | 9.25 ± 0.38 |
| GTGGCTACTATATATTGTACGATATTATATATATAC [XGTACX_site8376] | 7.73 ± 0.52 |
| GGTTCATTAAAGTGTACACATAAATACCGTAACATT [CACACA_site6002] | 7.92 ± 0.64 |
| CTAAGGTATGATTAATCACACACATAAATATATATA [CACACA_site8847] | 8.02 ± 0.73 |
| CACAAGAAAATTCACACACACACATATATATATATA [CACACA_site3880] | 9.26 ± 0.31 |
| TCCTTAATTCAAAAAATAATATCTTATATTTCAAAT [CACACA_negctrl_site1592] | 7.34 ± 0.44 |
| GGAATAAAGACAGCACGTACATATCTTACGAAGCTC [XGTACX_site3918] | 8 ± 0.4 |
| ATATTAATTTCTCATGCATGTTCTTCCCAATTGTAA [TGCATGCA_site425] | 7.99 ± 0.81 |
| GGTTAGACGAAATATACATGCAATGGAAAATAAGTT [TGCATGCA_site23] | 8.4 ± 0.61 |
| TCATCATGTATGTACACACATACATATATTATGTAC [CACACA_site1386] | 7.83 ± 0.43 |
| TATAAGTAGATAAGGGTGCACAATATAAATATATAG | 11.55 ± 0.021 |
| CTTTTTGAAATATTAACACACATTTTGTTAATGAAT [CACACA_site6087] | 7.65 ± 0.58 |
| ATATATATACATATAACACACACATATATATATATA [CACACA_site8827] | 9.32 ± 0.61 |
| TTGTATTTATTTATGGGAGGATTATAATCATTGTAG [GTGCAC_negctrl_site268] | 7.79 ± 0.42 |
| TAATTCACATTTTATACACACATTCGAACCTTTTTT [CACACA_site3341] | 7.79 ± 0.7 |
| ATTTTTATTAGTTATTGTACTTATTATTTATTAATT [XGTACX_site2568] | 7.89 ± 0.4 |
| TATAGATATATACGGTGTACATACATAAAAAAAAAA [XGTACX_site1648] | 8.02 ± 0.47 |
| TATAAAGAAATCATTACACACAAATAAATACATACA [CACACA_site2675] | 7.9 ± 0.27 |
